Laboratory results published in US20200002403A1 (published 2020).

Assays:
Experiment in all cases: SPR (BIAcore)
[1] = target: ELSS1 VNAR hit (unnamed, row 9)
[2] = target: ELSS1 VNAR hit (unnamed, row 7)
[3] = target: ELSS1 VNAR hit (unnamed, row 8)
[4] = target: ELSS1 VNAR hit (unnamed, row 11)
[5] = target: ELSS1 VNAR hit (unnamed, row 10)
[6] = target: ELSS1 VNAR hit (unnamed, row 3)
[7] = target: ELSS1 VNAR hit (unnamed, row 1)
[8] = target: ELSS1 VNAR hit (unnamed, row 2)
[9] = target: ELSS1 VNAR hit (unnamed, row 4)
Sequence of ELSS1 VNAR hit (unnamed, row 4) (Q9NR61 27-524): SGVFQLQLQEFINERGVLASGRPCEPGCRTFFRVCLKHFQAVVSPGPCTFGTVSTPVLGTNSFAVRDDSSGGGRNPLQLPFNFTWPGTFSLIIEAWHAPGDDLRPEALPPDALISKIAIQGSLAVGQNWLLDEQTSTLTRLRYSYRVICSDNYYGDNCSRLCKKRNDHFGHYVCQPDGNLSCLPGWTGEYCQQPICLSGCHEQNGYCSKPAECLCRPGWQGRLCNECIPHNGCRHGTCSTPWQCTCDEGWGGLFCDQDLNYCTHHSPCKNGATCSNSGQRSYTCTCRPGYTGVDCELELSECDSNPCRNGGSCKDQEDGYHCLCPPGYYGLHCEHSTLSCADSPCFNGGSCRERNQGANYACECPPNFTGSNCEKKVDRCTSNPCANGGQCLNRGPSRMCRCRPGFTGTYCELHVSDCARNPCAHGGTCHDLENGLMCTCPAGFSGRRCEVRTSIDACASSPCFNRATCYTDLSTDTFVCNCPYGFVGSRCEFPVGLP

Sequence of ELSS1 VNAR hit (unnamed, row 2) (Q9NR61 27-524): as above
Sequence of ELSS1 VNAR hit (unnamed, row 1) (Q9NR61 27-524): as above
Sequence of ELSS1 VNAR hit (unnamed, row 3) (Q9NR61 27-524): as above
Sequence of ELSS1 VNAR hit (unnamed, row 10) (Q15109 23-344): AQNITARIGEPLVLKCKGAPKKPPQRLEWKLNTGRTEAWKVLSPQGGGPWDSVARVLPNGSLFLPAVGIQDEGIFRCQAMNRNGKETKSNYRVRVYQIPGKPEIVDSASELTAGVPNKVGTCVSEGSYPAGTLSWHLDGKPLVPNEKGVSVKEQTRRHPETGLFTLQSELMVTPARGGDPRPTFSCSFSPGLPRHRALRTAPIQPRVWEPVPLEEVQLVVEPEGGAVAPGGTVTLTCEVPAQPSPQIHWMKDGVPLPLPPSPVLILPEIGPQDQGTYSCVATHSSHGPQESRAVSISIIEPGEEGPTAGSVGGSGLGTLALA
Sequence of ELSS1 VNAR hit (unnamed, row 8) (Q15109 23-344): as above
Sequence of ELSS1 VNAR hit (unnamed, row 9) (Q15109 23-344): as above
Sequence of ELSS1 VNAR hit (unnamed, row 11) (Q15109 23-344): as above
Sequence of ELSS1 VNAR hit (unnamed, row 7) (Q15109 23-344): as above

B1: hRAGE (receptor)
chain: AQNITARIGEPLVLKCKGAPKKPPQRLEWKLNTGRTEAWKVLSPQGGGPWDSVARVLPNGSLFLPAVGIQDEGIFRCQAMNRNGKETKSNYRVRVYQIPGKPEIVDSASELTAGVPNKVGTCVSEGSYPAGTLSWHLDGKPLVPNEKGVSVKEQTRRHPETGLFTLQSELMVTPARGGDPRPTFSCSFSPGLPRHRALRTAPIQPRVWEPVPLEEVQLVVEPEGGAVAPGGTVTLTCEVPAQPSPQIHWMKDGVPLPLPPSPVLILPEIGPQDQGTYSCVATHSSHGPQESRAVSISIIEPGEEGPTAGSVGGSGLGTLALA
A Kd [1] of 10.9 nM, a Kd [2] of 14.3 nM and a Kd [3] of 75.3 nM were found for B1 in this work. The Kd [4] was 57.2 nM and the Kd [5] was 73.3 nM.

B2: hDLL4 (ligand)
chain: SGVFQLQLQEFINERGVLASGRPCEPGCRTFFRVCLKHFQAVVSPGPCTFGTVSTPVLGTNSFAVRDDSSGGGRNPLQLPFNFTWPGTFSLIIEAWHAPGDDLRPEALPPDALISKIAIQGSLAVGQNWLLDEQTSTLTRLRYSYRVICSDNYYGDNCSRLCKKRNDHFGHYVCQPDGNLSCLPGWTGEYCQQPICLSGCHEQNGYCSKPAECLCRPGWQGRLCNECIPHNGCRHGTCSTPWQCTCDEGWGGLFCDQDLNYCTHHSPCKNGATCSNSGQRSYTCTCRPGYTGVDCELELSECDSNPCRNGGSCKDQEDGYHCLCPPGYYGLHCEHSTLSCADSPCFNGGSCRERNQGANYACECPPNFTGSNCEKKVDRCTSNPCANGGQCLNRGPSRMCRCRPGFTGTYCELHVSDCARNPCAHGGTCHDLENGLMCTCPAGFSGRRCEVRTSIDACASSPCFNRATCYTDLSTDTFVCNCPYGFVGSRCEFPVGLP
A Kd [6] of 2.49 nM, a Kd [7] of 18.7 nM and a Kd [8] of 17.7 nM were found for B2 in this work. For the same binder, the Kd [9] was 57.8 nM.
